Several values for one entry are separate records, joined by “and”; a condition that tells them apart may be missing. Identical values can stand only once. This list was built around the results that the source calls inconclusive (neither active nor inactive); the mix of calls is not that of the screen. Potencies of inconclusive entries are doubtful fits and often do not repeat. Activity calls are given as the source filed them. The call rests on the fitted dose curve; in most records, active means well fitted curve in the direction sought with a large enough effect in the repeat runs; inconclusive means weak or mixed curves; inactive means no such curve, though single readings can be large; an effect the other way counts as inactive or inconclusive.
Assay: qHTS assay to identify small molecule HDAC inhibitors (AID 1259364);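 further: wild-type HCT-116 cells with endogenous class I/II HDAC activity; nearly all actives have a fitted effect of over 45% in size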
Details: HCT-116 HDAC-Glo I/II luminescence, 2 h; series mostly up to 92.4 µM
Summary of the method: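 Screening used wild-type human colon HCT-116 cells incubated overnight, dosed with compounds for 2 hours, and assayed with a homogeneous luminogenic HDAC I/II reagent for 30 minutes at room temperature.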
Potency means the concentration at half of the fitted maximal effect; tags describe the fitted curve by direction and shape.

| SMILES | Potency |
| --- | --- |
| COc1ccc(-c2coc3cc(O)ccc3c2=O)cc1 | active: 1.54 µM |
| CC/C=C\CCOC(=O)c1ccccc1 | inconclusive: 24.3 µM [inhibitor, partial curve] |
| Nc1ccc(C(=O)Nc2ccccc2N)cc1 | active: 2.98 µM |
| CC(C)CCOC(=O)/C=C/c1ccccc1 | inconclusive: 54.7 µM [inhibitor, partial curve, poor fit] |
| CCOC(=O)c1ccc(OC(=O)CCCCCN=C(N)N)cc1 | inconclusive: 26.6 µM [inhibitor, partial curve, poor fit] |
| COC1CCC=CO1 (centres undefined) | inactive |
| COc1ccc(-c2nc3ccc(C4=NNC(=O)CC4C)cc3[nH]2)cc1 (centres undefined) | inconclusive: 29.8 µM [inhibitor, partial curve, poor fit] |
| CC(C)=CCCC(C)CCO (centres undefined) | inactive |
| O=C(O)c1ccccc1Nc1cccc(C(F)(F)F)c1 | active: 48.6 µM and inconclusive: 21.1 µM [inhibitor, partial curve] |
| CN(C)CC/C=C1/c2ccccc2COc2ccc(CC(=O)O)cc21 | inactive |
| Nc1nc(Cl)cc(Cl)n1 | inactive |

Assay: qHTS assay to identify small molecule HDAC inhibitors - cell viability counter screen (AID 1259365); further: nearly all actives have a fitted effect of over 50% in size
Details: HCT-116 viability, CellTiter-Glo ATP luminescence, 2 h; series mostly up to 92.4 µM
Summary of the method: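 CellTiter-Glo luminescence (30 min, room temperature) reported viability after a 2 h compound exposure at 37 C. Cells: wild-type HCT-116, 1,500 per well, seeded the night before.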

| SMILES | Potency |
| --- | --- |
| CC1(C)CCC(C)(C)c2cc(C(=O)Nc3ccc(C(=O)O)cc3)ccc21 | inconclusive: 68.6 µM [cytotoxic, single point] |
| O=c1cccccc1O | inactive |
| O=c1oc2cc(O)ccc2c2oc3cc(O)ccc3c12 | inconclusive: 58.6 µM [rising, partial curve, poor fit] |
| CCCC/C=C\CCCCCCCCCC=O | inactive |
| C[Si](C)(C)O[Si](C)(C)C | inactive |
| C1COC1 | inactive |
| CCC(Cl)C(Cl)C(Cl)CC(Cl)C(Cl)C(C)Cl (centres undefined) | inactive |
| C=C(C)C(=O)OC(C)C | inactive |
| NC(=O)c1ncn([C@@H]2O[C@H](CO)[C@@H](O)[C@H]2O)n1 | inconclusive: 6.68 µM [rising, full curve] |
| CCCCC(CC)COP(=O)(O)OCC(CC)CCCC (centres undefined) | inconclusive: 68.6 µM [cytotoxic, single point] |

Assay: qHTS assay to identify small molecule agonists of the sonic hedgehog signaling (Shh) pathway - cell viability counter screen (AID 1259366); further: nearly all actives have a fitted effect of over 50% in size
Details: NIH/3T3 Gli1-Luc viability, CellTiter-Fluor, 24 h; series mostly up to 92.4 µM
Summary of the method: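 Cytotoxicity counter screen: CellTiter-Fluor reagent added after 23 h compound exposure, then 1 h at 37C and fluorescence read. Cells were 3T3 Gli1-Luc, seeded 2,000 per well and dosed 4 h post-plating.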

| SMILES | Potency |
| --- | --- |
| CC1(C)CCC(C)(C)c2cc(C(=O)Nc3ccc(C(=O)O)cc3)ccc21 | inconclusive: 61.1 µM [cytotoxic, single point] |
| COc1ccc(-c2coc3cc(O)ccc3c2=O)cc1 | inactive |
| C=CC(=C)CCC=C(C)C | inconclusive: 68.6 µM [cytotoxic, single point] |
| CC(C)OC(=O)c1ccccc1 | inactive |
| CC(C)CCOCc1ccccc1 | inactive |
| O=[N+]([O-])c1ccccc1CCO | inactive |
| Cc1c(C(=O)O)cccc1[N+](=O)[O-] | inconclusive: 69.7 µM [cytotoxic, single point] |
| O=c1oc2cc(O)ccc2c2oc3cc(O)ccc3c12 | inconclusive: 26.2 µM [rising, partial curve] |
| C[C@H](CCC(=O)O)[C@H]1CC[C@H]2[C@@H]3CC[C@@H]4C[C@H](O)CC[C@]4(C)[C@H]3C[C@H](O)[C@]12C | inconclusive: 30.7 µM [cytotoxic, partial curve] |
| CC(=O)O[C@H]1CC[C@@]2(C)C(=CC[C@@H]3[C@@H]2CC[C@]2(C)C(C(C)=O)=CC[C@@H]32)C1 | inconclusive: 29.8 µM [rising, partial curve, poor fit] |
| Oc1ccc(Cc2ccccc2)cc1 | inconclusive: 50.4 µM [cytotoxic, partial curve, poor fit] |
| CC(=O)c1c(C)cc(C(C)(C)C)cc1C | inactive |
| Cc1oc(-c2ccccc2)nc1CCC(=O)c1ccc(CC2SC(=O)NC2=O)cc1 (centres undefined) | inconclusive: 13.3 µM [cytotoxic, full curve, poor fit] |
| CCCCCCCCCCCO | inactive |
| COc1ccc(C(=O)/C(Br)=C\C(=O)O)cc1 | inconclusive: 30.6 µM [cytotoxic, full curve] |
| CCCCCC1=CCCC1=O | inactive |
| CCCC1O[C@@H]2C[C@H]3[C@@H]4CCC5=CC(=O)C=C[C@]5(C)[C@H]4[C@@H](O)C[C@]3(C)[C@]2(C(=O)CO)O1 (some centres undefined) | inconclusive: 30.7 µM [cytotoxic, partial curve] and inconclusive: 27.3 µM [cytotoxic, partial curve] |
| C[C@]12CCC(=O)C=C1CC[C@@H]1[C@@H]2C(=O)C[C@@]2(C)[C@H]1CC[C@]2(O)C(=O)CO | inconclusive: 43.3 µM [rising, partial curve] and inconclusive: 29.8 µM [rising, partial curve] |

Source: PubChem BioAssay (Tox21)
